In the supplement of paper PMC3724861:
The list shows a part of the results.

test system: T1, Caupolican (Caup) homeodomain DNA-binding domain; assay: PBM E-score (8-mer, recovered from the published 9-mer minima) (E-score (dimensionless, -0.5 to 0.5)); Drosophila protein; higher = stronger relative binding preference, active = 0.31 or more
T1 sequence: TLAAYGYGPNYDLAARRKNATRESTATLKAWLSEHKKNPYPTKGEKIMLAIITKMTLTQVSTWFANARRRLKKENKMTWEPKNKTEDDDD
In short: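 An enrichment score, with higher meaning stronger, expresses relative binding preference for each short DNA word. The protein used was Caup's homeodomain DNA-binding domain (residues 214-303), produced by in vitro transcription and translation and tested at 100 nM on custom-designed protein binding microarrays. The 8-mer values were recovered from published 9-mer scores, each equal to the lower of its two constituent 8-mer scores.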

PBM E-score, inactive:
TGTCAAAA 0.261
ACAGTGTC 0.144
AGGAAATA 0.128
ACACTCAG -0.0055
CTTCACCA -0.177
AGTCATGC 0.041
CCCACGTA -0.0338
CCGGCCGC -0.328
CCGTACGA 0.111
CAGGACAA 0.208
GAAAATCA 0.141
ATACGGCG -0.0679
AATTTCGC -0.00371
ATAGCATC 0.0469
GATCCGGA -0.028
ATATTTAG 0.0428
CATAAAGC -0.0633
GGGTTATA 0.0172
ATACACAG 0.193
CGGGTATC -0.0353
TGGGGCAA -0.0702
AGGAATAC 0.0898
CTAGAAGA -0.00033
ACCGGCCC -0.207
AAGCTCCA -0.0536
TTAGGAAA 0.0877
CATTCCAA 0.0752
CGCCAGAA -0.165
CACCAGAA 0.0446
GATGACGA 0.132
CTTCCGAA -0.113
ATCAGCTG 0.0385
CCAGGCGA -0.225
GATCGTTA 0.00773
CCAATGAC 0.134
CGGCCACC -0.28
GCATCGAC 0.051
TAACCCCA -0.118
GTCAGACA 0.124
ATGCGGCC -0.0984
CATACGCG -0.0121
GCCATGAA -0.0776
CCCTTGCA -0.181
GGAGACGA -0.0786
ACACGGCT 0.193
ATACCAAC 0.132
AATTGCTG 0.00128
CCCGCGGA -0.184
ATTCTGGG -0.074
AAACCAAG 0.0333
GACAGCTA 0.131
ATGAGTCG 0.0591
AATGCTGG -0.00497
AGACTCGC -0.125
GCTGAAAC -0.022
AGTTGCTG 0.0005
CATACTCC 0.113
CGCATAAG -0.0518
AAGATACG 0.0916
AATTACTA 0.179
CATATTAC 0.179
ACCCCCGT -0.296
CCTTACGC -0.0569
CTCCTCCC -0.278
AATTGCTA 0.0647
ACTTGCTA 0.131
GTAAGTGA 0.0828
CGATATGA 0.0413
CCCATCGA -0.0804
CGATACCG -0.126
ACAGGTTC 0.119
TATGCAGA 0.0345
GGGCTCTA -0.168
ACATAAAG 0.215
AGCAGCCC -0.191
CATTAAGA 0.0649
AGACAACC 0.201
AATGTCAA 0.235
CAGTTTTC 0.013
AGCCTGAG -0.183
AAAACAGG 0.151
CAGTCAAC 0.00777
ATGCACAG 0.0286
AGGACGTA -0.0324
GGTCGGAA -0.0888
CTCTACAC 0.0598
AGACGAAC 0.127
ACCAGGTC -0.0436
GGGCTCAC -0.165
ATCACACC 0.0998
CATGTGGA 0.127
CGATTCAA -0.00124
CTTGATCA 0.114
CAGACCGA -0.108
GCCACAAA -0.0457
ACGGTAAC 0.134
AAGGTCCC -0.0972
AGGATATC 0.0657
ATAGTCAC 0.0756
AGTGTCCG -0.0503
GCTCTGAA 0.0231
GCAGATGA -0.0311
CGCAAACG -0.0571
CAAACCGG -0.0647
ACCAAGGC -0.145
CGGCGCTA -0.184

PBM E-score, ≥ -0.114:
ACGGGGCA

PBM E-score, ≥ -0.045:
ATCCGGGA

PBM E-score, ≥ 0.0723:
AAGTAGGA

PBM E-score, ≥ 0.208:
AGGACACA

PBM E-score, ≥ -0.0554:
GCGGTCGA

PBM E-score, ≥ 0.0422:
TCCTAAAA
